# In the supplement of paper PMC4604168 (melanoma cell lines):
# The other results are listed elsewhere or left out. Most values come without repeats; read them as rough.
# Tests used:
# Assay in all cases: cell count relative to DMSO control; melanoma cells; higher = more viable cells
# Conditions in all cases: library dose: standard library concentration; 72 h
# [1] = tested on: G361
# [2] = tested on: IPC-298
# [3] = tested on: IST-MEL1
# [4] = tested on: LB2518-MEL
# [5] = tested on: LOXIMVI
# [6] = tested on: MEL-HO
# [7] = tested on: MZ2-MEL
# [8] = tested on: MeWo
# [9] = tested on: RPMI7951
# [10] = tested on: RVH-421
# [11] = tested on: SkMel28
# [12] = tested on: SkMel2
# [13] = tested on: SkMel30
# [14] = tested on: SkMel5
# [15] = tested on: UACC257
# [16] = tested on: UACC62
# [17] = tested on: WM115
# [18] = tested on: WM1716
# [19] = tested on: WM1745
# [20] = tested on: WM3526
# 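Further: cells treated in 1,536-well plates, then fixed and DAPI-stained, with nuclei counted from automated high-throughput microscope images.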
Structure (SMILES),cell count [1],cell count [2],cell count [3],cell count [4],cell count [5],cell count [6],cell count [7],cell count [8],cell count [9],cell count [10],cell count [11],cell count [12],cell count [13],cell count [14],cell count [15],cell count [16],cell count [17],cell count [18],cell count [19],cell count [20]
"CC(=O)O[C@@]12CO[C@@H]1C[C@H](O)[C@@]1(C)C(=O)[C@H](O)C3=C(C)[C@@H](OC(=O)[C@H](O)[C@@H](NC(=O)OC(C)(C)C)c4ccccc4)C[C@@](O)([C@@H](OC(=O)c4ccccc4)[C@H]21)C3(C)C [Docetaxel] + C=C(c1ccc(C(=O)O)cc1)c1cc2c(cc1C)C(C)(C)CCC2(C)C [Bexarotene] (first compound 0.0005 µM, partner dose 10 µM)",18.6%,45.1%,45.5%,49.9%,39%,41.8%,37%,31.3%,27.7%,40%,13.6%,14.9%,33.7%,45%,53.7%,51.9%,39.8%,28.9%,26%,34.3%
"CC(=O)O[C@@]12CO[C@@H]1C[C@H](O)[C@@]1(C)C(=O)[C@H](O)C3=C(C)[C@@H](OC(=O)[C@H](O)[C@@H](NC(=O)OC(C)(C)C)c4ccccc4)C[C@@](O)([C@@H](OC(=O)c4ccccc4)[C@H]21)C3(C)C [Docetaxel] + CN(C)S(=O)(=O)c1ccc2c(c1)/C(=C/c1cc3c([nH]1)CCCC3)C(=O)N2 [SU6656] (first compound 0.0005 µM, partner dose 2 µM)",21.3%,45%,29.6%,46.9%,66.9%,47%,48.7%,26.8%,30.9%,53.4%,31%,29.5%,51.8%,38%,59.9%,55.4%,35.1%,36.4%,37.2%,35.7%
"CC(=O)O[C@@]12CO[C@@H]1C[C@H](O)[C@@]1(C)C(=O)[C@H](O)C3=C(C)[C@@H](OC(=O)[C@H](O)[C@@H](NC(=O)OC(C)(C)C)c4ccccc4)C[C@@](O)([C@@H](OC(=O)c4ccccc4)[C@H]21)C3(C)C [Docetaxel] + C#Cc1cccc(Nc2ncnc3cc(OCCOC)c(OCCOC)cc23)c1 [erlotinib] (first compound 0.0005 µM, partner dose 4 µM)",12.6%,31.7%,35%,21.4%,61.7%,27.9%,24.7%,15.4%,17.8%,38%,23%,15.5%,35.5%,21.7%,52.2%,43.3%,28.3%,31.9%,25.4%,38.3%
"Nc1nc(F)nc2c1ncn2[C@@H]1O[C@H](CO)[C@@H](O)[C@@H]1O [fludarabine] + O=C(O)c1ccc(-c2c[nH]c3ncc(-c4ccccc4)cc23)cc1C1CCCC1 [GSK650394] (first compound 1 µM, partner dose 0.8 µM)",53.1%,75.5%,51.4%,67.7%,87%,69%,95.7%,94.2%,48.3%,77.2%,2.42%,1.1%,19.4%,31.4%,35.8%,61.6%,78.6%,76.4%,93.8%,20.2%
"CC(=O)O[C@@]12CO[C@@H]1C[C@H](O)[C@@]1(C)C(=O)[C@H](O)C3=C(C)[C@@H](OC(=O)[C@H](O)[C@@H](NC(=O)OC(C)(C)C)c4ccccc4)C[C@@](O)([C@@H](OC(=O)c4ccccc4)[C@H]21)C3(C)C [Docetaxel] + CNC(=O)c1cc(Oc2ccc(NC(=O)Nc3ccc(Cl)c(C(F)(F)F)c3)cc2)ccn1 [sorafenib] (first compound 0.0005 µM, partner dose 2 µM)",13%,39.1%,42.4%,34.6%,61.6%,39.5%,36.8%,20.2%,22.1%,58.9%,12.1%,19.3%,40.5%,31%,59.7%,50.5%,33.2%,33.9%,46.7%,29.1%
"CO[C@H]1C[C@@H]2CC[C@@H](C)[C@@](O)(O2)C(=O)C(=O)N2CCCC[C@H]2C(=O)O[C@H]([C@H](C)C[C@@H]2CC[C@@H](OCCO)[C@H](OC)C2)CC(=O)[C@H](C)/C=C(\C)[C@@H](O)[C@@H](OC)C(=O)[C@H](C)C[C@H](C)/C=C/C=C/C=C/1C [everolimus] + NCC(=O)Nc1ccc(-n2nc(C(F)(F)F)cc2-c2ccc3c(ccc4ccccc43)c2)cc1 [OSU03012] (first compound 0.1 µM, partner dose 5 µM)",71.9%,65.2%,77.1%,79.2%,86.3%,83.8%,106%,85.9%,62.5%,78.4%,35.4%,42.1%,57.8%,50.3%,84.9%,63.1%,53.5%,73.1%,87.7%,56.6%
"Nc1nc(F)nc2c1ncn2[C@@H]1O[C@H](CO)[C@@H](O)[C@@H]1O [fludarabine] + COCC[n+]1c2c(n(Cc3cnccn3)c1C)C(=O)c1ccccc1C2=O [YM155] (first compound 1 µM, partner dose 0.002 µM)",69.8%,48.2%,44.3%,26.2%,39.8%,82.8%,28.9%,55.4%,24.8%,126%,2.33%,0.935%,16.5%,28.4%,28.1%,48.4%,66.3%,66.2%,90.9%,17.9%
"CO[C@H]1C[C@@H]2CC[C@@H](C)[C@@](O)(O2)C(=O)C(=O)N2CCCC[C@H]2C(=O)O[C@H]([C@H](C)C[C@@H]2CC[C@@H](OCCO)[C@H](OC)C2)CC(=O)[C@H](C)/C=C(\C)[C@@H](O)[C@@H](OC)C(=O)[C@H](C)C[C@H](C)/C=C/C=C/C=C/1C [everolimus] + CCN(CC)CCCCNc1ncc2cc(-c3cc(OC)cc(OC)c3)c(NC(=O)NC(C)(C)C)nc2n1 [PD173074] (first compound 0.1 µM, partner dose 0.5 µM)",72.4%,67.5%,87.2%,81.4%,70.1%,73.6%,73.8%,52.9%,72%,92.6%,53.6%,69.8%,71.5%,70.4%,95.2%,70.5%,64.5%,81%,,82.8%
"Nc1ccn([C@@H]2O[C@H](CO)[C@@H](O)C2(F)F)c(=O)n1 [gemcitabine] + C[C@]1(c2nc3c(C(N)=O)cccc3[nH]2)CCCN1 [Veliparib] (first compound 0.002 µM, partner dose 7 µM)",53.4%,64.7%,41.6%,78.2%,75.9%,78.4%,89.9%,59.2%,65.1%,70%,93.4%,94.3%,108%,113%,90.2%,75.2%,78.7%,71.4%,49.6%,105%
"CC(=O)O[C@@]12CO[C@@H]1C[C@H](O)[C@@]1(C)C(=O)[C@H](O)C3=C(C)[C@@H](OC(=O)[C@H](O)[C@@H](NC(=O)OC(C)(C)C)c4ccccc4)C[C@@](O)([C@@H](OC(=O)c4ccccc4)[C@H]21)C3(C)C [Docetaxel] + O=c1cc(-c2cccc3c2Sc2ccccc2S3)oc(N2CCOCC2)c1 [KU55933] (first compound 0.0005 µM, partner dose 5 µM)",15.4%,41.4%,33.1%,28.1%,60.9%,37.9%,44.8%,19.5%,21.9%,50.6%,10.5%,16%,44.9%,39.4%,59.4%,49.2%,32.3%,32.5%,,36.2%
"Nc1ccn([C@@H]2O[C@H](CO)[C@@H](O)C2(F)F)c(=O)n1 [gemcitabine] + CC(C)CCN1c2nc(Nc3cc(F)c(O)c(F)c3)ncc2N(C)C(=O)C1C [BID1870] (first compound 0.002 µM, partner dose 1 µM)",50.5%,53.2%,43.2%,72.9%,89.6%,58%,73.1%,57.5%,67.5%,72.7%,60.3%,74.8%,85.7%,74.1%,92.3%,70.3%,92.3%,64.1%,,64.1%
"Nc1ccn([C@@H]2O[C@H](CO)[C@@H](O)C2(F)F)c(=O)n1 [gemcitabine] + Cn1c(Nc2ccc(C(F)(F)F)cc2)nc2cc(Oc3ccnc(-c4ncc(C(F)(F)F)[nH]4)c3)ccc21 [CHIR265] (first compound 0.002 µM, partner dose 0.4 µM)",15.5%,30.2%,54.4%,30.2%,55%,49.2%,63.7%,36.6%,56.7%,69.1%,36.8%,67%,70.1%,37.3%,87.3%,47.8%,39.7%,64.3%,63.7%,53.8%
"Nc1ccn([C@@H]2O[C@H](CO)[C@@H](O)C2(F)F)c(=O)n1 [gemcitabine] + Cc1cc([N+](=O)[O-])ccc1NS(=O)(=O)c1cc(Cl)ccc1Cl [FH535] (first compound 0.002 µM, partner dose 5 µM)",20.5%,35.2%,41.5%,57.2%,99.3%,46.1%,72.4%,38.2%,75.4%,51.5%,69.8%,85.3%,96%,74.4%,65.9%,95.4%,68.1%,65%,,85.6%
"CO[C@H]1C[C@@H]2CC[C@@H](C)[C@@](O)(O2)C(=O)C(=O)N2CCCC[C@H]2C(=O)O[C@H]([C@H](C)C[C@@H]2CC[C@@H](OCCO)[C@H](OC)C2)CC(=O)[C@H](C)/C=C(\C)[C@@H](O)[C@@H](OC)C(=O)[C@H](C)C[C@H](C)/C=C/C=C/C=C/1C [everolimus] + COc1ccc(-c2ccc3c(N4CCOCC4)nc(N4C[C@@H](C)O[C@@H](C)C4)nc3n2)cc1CO [KU0063794] (first compound 0.1 µM, partner dose 0.1 µM)",41.2%,50.9%,65.1%,49%,64.5%,52.1%,44.6%,47.2%,63.6%,56.3%,24.4%,43.6%,67.8%,42.4%,69.8%,65.9%,64.2%,58.6%,,59.9%
